Assay results taken from the supplement of paper PMC3334620.
Whole data set: some 33,000 sequences, median “E-score (-0.5 to 0.5)” near -0.054, cut for the highest 2% near 0.39. This is one part of the list.

These sequences were tested against Ylr278c (UniProt Q05854) (assay: PBM E-score (8-mer binding enrichment) (E-score (-0.5 to 0.5)); higher = stronger / more preferred TF binding; most listed sequences are background and not binding sites). Conditions: protein concentration: 200 nM; construct: GST-DNA-binding domain.
In short: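 Each ungapped eight-base word and its reverse complement, pooled, received an E-score from the Universal PBM Analysis Suite. Underlying scans, normalised with masliner, recorded fluorescent anti-GST bound to GST-tagged yeast transcription factors. These were applied at about 100-200 nM to universal all-10-mer Agilent arrays double-stranded by primer extension.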

Sequence	PBM E-score
GGGAAGTA	0.00224
TCCCCGAA	0.357
GGTCCTAA	0.00859
CCGCTGTA	0.171
CGCCCACG	0.123
CAATCGCA	-0.0422
ACGACTCA	-0.168
GTCACTTA	-0.0522
ATGGGCCG	0.168
TTAATTAA	-0.226
GACGCATC	0.0416
AAGATTAT	-0.019
CCGGGTCC	0.316
TAATACAA	0.0634
GATTATTA	0.0912
AATTTAGA	-0.061
GTTGCAGA	-0.0415
TTCTACAA	-0.164
TCCCTTAA	-0.263
TAGGTATA	-0.209
AAATATGC	-0.0391
GAATGGAC	-0.102
CCGTATTA	0.211
AAATCCCA	-0.101
CCAACCGC	0.0736

Sequence	PBM E-score
GGTGGCTA	-0.2
TCCGCCCA	0.283
AGCTGTGA	-0.147
CTTTAGTA	-0.25
AGAATGAT	-0.0599
AAGTACTC	0.0456
CAATAGTA	-0.0755
AAATCCAG	-0.0486
GTTCGTAA	-0.126
GTTGTCCA	-0.237
GACCAGGC	-0.21
ACGCTTAT	-0.202
AGATTAGC	-0.109
GTGCAGAA	-0.0977
AGAGACAG	-0.071
ATAGGGTA	-0.197
GAGTCCTA	-0.145
AAGGTCAA	-0.195
AACTCCAC	0.00252
GCAGAGCA	-0.235
CTTGCGAC	-0.134
ATTTGGAA	-0.128
TAATTCCA	-0.0294
CTAGGATC	-0.0843
GCTTAACA	-0.0421

Sequence	PBM E-score
CGGCCCCA	0.0896
ATCGAGCC	-0.0378
TCGGTGCA	0.2
CTCACATA	-0.229
TAGTGGAA	0.0677
TGAAGGCA	-0.241
CATGCATA	-0.229
CGGCGATC	0.338
CCGGCAGA	0.251
GCGCCGGA	0.432
AAAGGTTC	-0.0266
TCAGTGCA	-0.21
AAGGGAAG	-0.153
CTTGGTCC	-0.0131
CACAACAG	-0.244
AGAATACG	-0.017
GAACACAC	0.00508
CAGCAGGA	-0.214
AACCGGGA	0.241
CAATGGTC	-0.19
CAAATCCG	0.381
AAGGTGTA	-0.0554
CACTGCCA	-0.217
AAAGCATT	-0.217
CCATGCAA	0.114

Sequence	PBM E-score
GCGACTAC	0.0244
ACAACTCC	0.295
ACTGGCTG	-0.0116
GGGGGACC	-0.128
CGATCTAA	-0.0808
AACCCAGT	-0.0306
AGAAGTTC	-0.183
CTATACGC	-0.0641
CTGCTTCC	0.0372
ATAATGGC	-0.0395
GTCGAAAA	-0.102
AATGCTCC	0.153
AGCCTGGG	-0.00528
CAACCTAG	-0.24
CAGTCCCA	-0.104
ATCCGGGG	0.414
AATTAACA	-0.128
TGGCGACA	-0.197
TAAAACTA	-0.0762
CCTTAACC	-0.267
AATTGACG	0.0788
CGGATACA	0.297
GATTAGGC	-0.103
ACGATTAC	-0.192
CATGGCCA	-0.203

Sequence	PBM E-score
CCAGAGCA	-0.0996
AGATCCTG	-0.133
CAGTACCA	-0.238
GTTACGCA	-0.0981
CCGCATCA	0.174
CAGTGGAA	-0.144
ATGACACA	-0.149
CTTCCTCA	-0.0724
AATTGATA	-0.0338
ATGATCGC	0.0153
CCCCTCTC	-0.116
AGCGGGAA	0.182
CGAGACCA	-0.0366
CGTCACAA	0.0364
ATTCGTAA	-0.0993
ATCATGTA	-0.269
GATACCGC	0.18
CAGTTAGA	-0.139
GCCTGAGA	-0.066
AAGAACTC	-0.0203
ATGTCATG	-0.217
GCAAGCAC	-0.311
TATACACA	-0.261
ATACGCTG	-0.0284
TCCTATCA	-0.135

Sequence	PBM E-score
ATTCTATA	-0.108
CATGGGCG	0.0656
CTAAGGTC	-0.177
GGACGAGA	0.0381
CTACAAGC	-0.132
GGTAGCGA	-0.00554
CTCGTTCC	0.165
ACAAAATG	0.0866
AACTGGCG	0.0285
CTACCTAG	-0.234
AAGGTAAT	0.0825
CGAGGGAC	-0.22
GATGTCGA	-0.0459
CTAAGCCC	0.0902
AATATTTC	0.139
AGTTTGCG	0.0593
TAGGAGCA	-0.184
CTGCCCTA	-0.0934
AAGAATGG	0.125
CGATCGTA	0.00037
GCAGCCAC	0.00248
ATACTCCA	-0.0317
CCCGGTTA	0.264
ACCCTGTG	-0.183
CGAACTCA	-0.0578

Sequence	PBM E-score
CAATCTCA	-0.164
CGGCCGCA	0.249
AAACCAGT	-0.284
AACTCCAT	0.214
GCGGTTCC	0.154
AAACGCGT	0.00159
ACGGAATC	0.32
AAAAGTCG	0.0652
GTGATTAA	-0.0576
GATTCTAC	0.107
GCACGACA	-0.192
TCGAGAGA	-0.147
CAGAGGGC	0.00349
ACTACAGG	-0.00991
ATGACGAA	-0.108
CTACCAGC	-0.259
ACTCGGAC	0.383
AGACTGCC	-0.109
CACCACCG	0.143
ACTAAGCT	-0.21
AGAAGCGG	0.24
CCGTGGGC	0.249
